Assay results published in paper PMC7806596, “Regulation of trehalase activity by multi-site phosphorylation and 14-3-3 interaction” (Scientific Reports, 2021).
Residue numbers refer to the chain shown, from its start. No constants are given. Whether binding was seen depends on the method and setting. Binding seen in cells or lysates may run through a third protein. Some entries that bind do so weakly or less than the wild type. Tags and fused reporters may be left off the sequences shown.

Sequences of proteins named here, by UniProt entry; tags and fusion partners are left off.
UniProt P29311: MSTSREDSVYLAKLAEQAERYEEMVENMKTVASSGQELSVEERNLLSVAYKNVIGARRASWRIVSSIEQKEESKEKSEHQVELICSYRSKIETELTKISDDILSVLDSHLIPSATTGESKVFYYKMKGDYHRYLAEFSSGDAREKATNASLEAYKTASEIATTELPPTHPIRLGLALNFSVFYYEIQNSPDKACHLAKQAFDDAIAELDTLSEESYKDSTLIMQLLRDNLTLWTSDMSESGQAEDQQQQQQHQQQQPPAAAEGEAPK

How the values were obtained:
[1] = biological target: T1, full-length 3xFLAG-tagged Nth1 (Nth1^WT) (S. cerevisiae) (UniProt P32356); test: co-IP; Nth1-3xFLAG precipitated with anti-FLAG M2 magnetic beads, Bmh1-V5 detected by blot; cells grown on 1% ethanol minimal medium, arrested in G1 and synchronously released; 25 mM Tris-HCl pH 7.5, 150 mM NaCl, 5 mM CaCl2, 0.1% Triton X-100, 4 °C, 1 h
T1 sequence: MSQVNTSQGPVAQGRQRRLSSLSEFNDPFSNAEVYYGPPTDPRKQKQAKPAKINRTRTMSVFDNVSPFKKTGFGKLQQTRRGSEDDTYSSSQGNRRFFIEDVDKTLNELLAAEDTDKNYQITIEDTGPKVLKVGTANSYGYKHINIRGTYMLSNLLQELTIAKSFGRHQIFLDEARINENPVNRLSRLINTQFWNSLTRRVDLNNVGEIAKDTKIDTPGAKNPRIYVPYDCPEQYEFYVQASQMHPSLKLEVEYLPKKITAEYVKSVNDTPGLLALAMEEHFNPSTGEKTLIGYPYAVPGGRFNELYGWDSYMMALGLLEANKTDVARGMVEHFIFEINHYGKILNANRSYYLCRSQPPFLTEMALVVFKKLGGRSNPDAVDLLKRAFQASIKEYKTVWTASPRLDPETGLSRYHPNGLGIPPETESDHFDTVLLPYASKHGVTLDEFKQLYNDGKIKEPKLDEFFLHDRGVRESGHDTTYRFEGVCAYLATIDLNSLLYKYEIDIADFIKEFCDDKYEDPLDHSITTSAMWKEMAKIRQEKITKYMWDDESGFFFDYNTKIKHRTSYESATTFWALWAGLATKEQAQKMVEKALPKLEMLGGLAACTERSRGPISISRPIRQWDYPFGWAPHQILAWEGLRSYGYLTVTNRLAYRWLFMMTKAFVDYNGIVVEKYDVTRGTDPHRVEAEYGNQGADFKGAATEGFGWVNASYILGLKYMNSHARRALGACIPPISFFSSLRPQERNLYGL

[2] = biological target: T2, full-length 3xFLAG-tagged Nth1^S60A (S. cerevisiae) (UniProt P32356); test: as above
T2 sequence: T1 sequence with S60A

[3] = biological target: T3, full-length 3xFLAG-tagged Nth1^S66A (S. cerevisiae) (UniProt P32356); test: as above
T3 sequence: T1 sequence with S66A

[4] = biological target: T1, full-length 3xFLAG-tagged Nth1 (Nth1^WT) (S. cerevisiae); test: condition: only stationary phase, before glucose replenishment; co-IP; Nth1-3xFLAG precipitated with anti-FLAG M2 magnetic beads, Bmh1-V5 detected by blot; cells in stationary phase, before glucose addition
[5] = biological target: T4, 3xFLAG-tagged Nth1 reporter (95 amino acids long N-terminal regulatory tail) (S. cerevisiae) (UniProt P32356); test: co-IP; Nth1 reporter with Bmh1 (Supplementary Fig. S1d); conditions not given
T4 sequence: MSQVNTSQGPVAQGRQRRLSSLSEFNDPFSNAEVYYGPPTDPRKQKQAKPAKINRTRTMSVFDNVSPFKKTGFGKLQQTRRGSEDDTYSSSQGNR

[6] = biological target: T1, full-length 3xFLAG-tagged Nth1 (Nth1^WT) (S. cerevisiae); test: co-IP; Nth1-3xFLAG precipitated with anti-FLAG M2 magnetic beads, Bmh1-V5 detected by blot; stationary phase cells recovered by dilution in 1% glucose minimal medium (5 min after glucose replenishment); 25 mM Tris-HCl pH 7.5, 150 mM NaCl, 5 mM CaCl2, 0.1% Triton X-100, 4 °C, 1 h
[7] = biological target: T5, full-length 3xFLAG-tagged Nth1^5A (S. cerevisiae) (UniProt P32356); test: as above
T5 sequence: T1 sequence with S20A, S21A, S60A, S66A, S83A

- binding [1]: binds
- binding [2]: binds
- binding [3]: binds
- binding [4]: no binding
- binding [5]: no binding
- binding [6]: binds
- binding [7]: no binding
Substance: V5-tagged Bmh1 (from UniProt P29311 1-267)
